# Experimental data published in the supplement of paper PMC9135407.
# Several values for one entry are separate records, joined by “and”; a condition that tells them apart may be missing. Equal values may be shown once. Where a name gives a salt, the structure may show the parent alone. Among all 5,800 compounds or so, about 620 (11%) showed activity.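 How the source made its calls: active = score above a cut-off or among the top three wells of a plate; in these data no inactive exceeds 0.85.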 This is a selection; strong and weak results do not stand in their true shares.
# System: primary human hepatic stellate cells (donor 1)
# Assay: scaled lipid accumulation score (0 = DMSO-like, 1 = nortriptyline-like); higher = stronger HSC inactivation (lipid re-accumulation), active = hit call of the paper
# Conditions: 48 h
# Description: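 Primary lipid accumulation screen in primary human hepatic stellate cell myofibroblasts (donor 1, passage 8) in 384-well plates. 100 nL of library compound was pin-transferred into 30 µL medium in duplicate, and cells were treated for 48 h. The 'Scaled' score combines distance from plate baseline, toxicity and reproducibility penalties, and is normalised to nortriptyline (positive) and DMSO (negative) controls on each plate. A hit is defined as scaled >0.85 or among the top 3 wells per plate.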
# [1] = library stock concentration: 10 mM
# [2] = library stock concentration: 1 mM
# [3] = library stock concentration: 2 mM
# [4] = library stock concentration: 3.33 mM
# [5] = library stock concentration: 4.8 mM
structure (smiles),measurement,setting,value
S=C1SCN(Cc2ccccc2)CN1Cc1ccccc1,scaled lipid accumulation score,[1],inactive: ≤ 0
"CCCCCCCCC=CCC=CCC=CCCCC(=O)O [5(Z),8(Z),11(Z)-Eicosatrienoic Acid]",scaled lipid accumulation score,[2],inactive: 0.072
COc1cc2ncnc(Nc3ccc(F)c(Cl)c3)c2cc1NC(=O)C=CCN1CCCCC1,scaled lipid accumulation score,[3],active: 0.903
same,scaled lipid accumulation score,[1],active: 1.47
NCC(=O)Nc1ccc(-n2nc(C(F)(F)F)cc2-c2ccc3c(ccc4ccccc43)c2)cc1,scaled lipid accumulation score,[4],inactive: 0.577
same,scaled lipid accumulation score,[1],inactive: ≤ 0
COc1ccc(-c2nc3cc(C4=NNC(=O)CC4C)ccc3[nH]2)cc1 (centres undefined) [Pimobendan],scaled lipid accumulation score,[4],inactive: ≤ 0
same,scaled lipid accumulation score,[1],inactive: 0.097
NS(=O)(=O)c1cc2c(cc1Cl)N=CNS2(=O)=O [Chlorothiazide],scaled lipid accumulation score,,inactive: ≤ 0
same,scaled lipid accumulation score,[4],inactive: ≤ 0
same,scaled lipid accumulation score,library stock concentration: 6.8 mM,inactive: ≤ -0.001
same,scaled lipid accumulation score,[1],inactive: ≤ 0 and inactive: 0.054 and inactive: 0.009
COc1ccc(-c2cnc3c(-c4cccc5ncccc45)cnn3c2)cc1,scaled lipid accumulation score,[4],inactive: 0.037
same,scaled lipid accumulation score,[1],inactive: 0.367
CCCCCCCCCCCCCCCCCCCCCCC(=O)OCC [Ethyl Tricosanoate],scaled lipid accumulation score,[2],inactive: ≤ 0
CN[C@H](CC(C)C)C(=O)N[C@H]1C(=O)N[C@@H](CC(N)=O)C(=O)N[C@H]2C(=O)N[C@H]3C(=O)N[C@H](C(=O)N[C@H](C(=O)O)c4cc(O)cc(O)c4-c4cc3ccc4O)[C@H](O)c3ccc(c(Cl)c3)Oc3cc2cc(c3O[C@@H]2O[C@H](CO)[C@@H](O)[C@H](O)[C@H]2O[C@H]2C[C@](C)(N)[C@H](O)[C@H](C)O2)Oc2ccc(cc2Cl)[C@H]1O [Vancomycin hydrochloride from Streptomyces orientalis],scaled lipid accumulation score,[1],inactive: ≤ 0
CN[C@H](CC(C)C)C(=O)N[C@H]1C(=O)N[C@@H](CC(N)=O)C(=O)N[C@H]2C(=O)N[C@H]3C(=O)N[C@H](C(=O)N[C@H](C(=O)O)c4cc(O)cc(O)c4-c4cc3ccc4O)[C@H](O)c3ccc(c(Cl)c3)Oc3cc2cc(c3O[C@@H]2O[C@H](CO)[C@@H](O)[C@H](O)[C@H]2O[C@H]2C[C@](C)(N)[C@H](O)[C@H](C)O2)Oc2ccc(cc2Cl)[C@H]1O [Vancomycin hydrochloride],scaled lipid accumulation score,,inactive: 0.108
same,scaled lipid accumulation score,[1],inactive: ≤ 0
CNS(=O)(=O)Cc1ccc2[nH]cc(CCN(C)C)c2c1 [Sumatriptan Succinate],scaled lipid accumulation score,[5],inactive: 0.037
CNS(=O)(=O)Cc1ccc2[nH]cc(CCN(C)C)c2c1,scaled lipid accumulation score,[1],inactive: ≤ 0
CNS(=O)(=O)Cc1ccc2[nH]cc(CCN(C)C)c2c1 [Sumatriptan succinate],scaled lipid accumulation score,[1],inactive: 0.062
COc1cc2ncnc(Oc3cccc(NC(=O)Nc4cc(C(C)(C)C(F)(F)F)on4)c3)c2cc1OC,scaled lipid accumulation score,[4],inactive: ≤ -0.009
same,scaled lipid accumulation score,[1],inactive: ≤ 0
O=c1c(O)c(-c2ccc(O)c(O)c2)oc2cc(O)ccc12 [Fisetin],scaled lipid accumulation score,[4],inactive: ≤ 0
same,scaled lipid accumulation score,[1],inactive: ≤ 0
CCC(CC)(CC(=O)Nc1cccc(/C=C/c2nc(C3CCC3)cs2)c1)C(=O)O [Cinalukast],scaled lipid accumulation score,[1],inactive: 0.005
NC(=O)c1ncn([C@@H]2O[C@H](CO)[C@@H](O)[C@H]2O)n1 [Ribavirin],scaled lipid accumulation score,,inactive: ≤ 0
same,scaled lipid accumulation score,[4],inactive: ≤ 0
same,scaled lipid accumulation score,[1],inactive: ≤ 0 and inactive: 0.162
CCCCCCCCCCCCCCCCNc1ccc(C(=O)O)cc1 [Cetaben],scaled lipid accumulation score,[2],inactive: 0.024
CCOC(=O)[C@H](CCc1ccccc1)N[C@@H](C)C(=O)N1[C@H](C(=O)O)C[C@@H]2CCC[C@@H]21,scaled lipid accumulation score,[1],inactive: ≤ 0
CCOC(=O)[C@H](CCc1ccccc1)N[C@@H](C)C(=O)N1[C@H](C(=O)O)C[C@@H]2CCC[C@@H]21 [Ramipril],scaled lipid accumulation score,,inactive: ≤ 0
same,scaled lipid accumulation score,[4],inactive: 0.1
same,scaled lipid accumulation score,[5],inactive: ≤ 0
same,scaled lipid accumulation score,[1],inactive: ≤ 0
CCOc1ccc2c(c1)C(C)=CC(C)(C)N2 [Ethoxyquin],scaled lipid accumulation score,,inactive: ≤ 0
same,scaled lipid accumulation score,[1],inactive: ≤ 0
Cc1ccc(S(=O)(=O)n2c(N)nc3ccccc32)cc1 [ML130 (Nodinitib-1)],scaled lipid accumulation score,[4],inactive: 0.011
same,scaled lipid accumulation score,[1],inactive: 0.086
"Cn1c(=O)c2[nH]c(C3CCCC3)nc2n(C)c1=O [8-Cyclopentyl-1,3-dimethylxanthine]",scaled lipid accumulation score,[1],inactive: 0.066
C=NC(C(=O)NC1C(=O)N2C1SC(C)(C)C2C(=O)O)c1ccccc1 (centres undefined) [Metampicillin sodium],scaled lipid accumulation score,[1],inactive: ≤ 0
CC(C)COCC(CN(Cc1ccccc1)c1ccccc1)N1CCCC1 (centres undefined) [Bepridil hydrochloride],scaled lipid accumulation score,,inactive: 0.677
same,scaled lipid accumulation score,library stock concentration: 5 mM,inactive: 0.569
same,scaled lipid accumulation score,[1],inactive: 0.175 and inactive: 0.195
O=C(Nc1ccc(C(=O)O)c(O)c1)c1ccccc1 [Benzoylpas],scaled lipid accumulation score,library stock concentration: 7.8 mM,inactive: ≤ 0
CCCCOC(=O)c1ccc(N)cc1 [Butamben],scaled lipid accumulation score,,inactive: ≤ 0
same,scaled lipid accumulation score,[1],inactive: ≤ 0
CS(=O)(=O)CCNCc1ccc(-c2ccc3ncnc(Nc4ccc(OCc5cccc(F)c5)c(Cl)c4)c3c2)o1,scaled lipid accumulation score,[3],active: 1.7
OC1C[C@@H]2[C@@H](CC[C@@H](O)CCc3ccccc3)[C@H](O)C[C@@H]2O1 (some centres undefined) [Latanoprost Lactol],scaled lipid accumulation score,[2],inactive: 0.027
O=[N+]([O-])c1ccc2c(c1)S(=O)(=O)C=C2 [Stattic],scaled lipid accumulation score,[1],inactive: 0.347
Nc1ccc(-c2ccc3ccccc3n2)cc1 [BF-170 hydrochloride],scaled lipid accumulation score,[1],inactive: 0.028
CC[C@H]1OC(=O)[C@H](C)[C@@H](O[C@H]2C[C@@](C)(OC)[C@@H](O)[C@H](C)O2)[C@H](C)[C@@H](O[C@@H]2O[C@H](C)C[C@H](N(C)C)[C@H]2O)[C@](C)(OC)C[C@@H](C)C(=O)[C@H](C)[C@@H](O)[C@]1(C)O,scaled lipid accumulation score,[1],inactive: 0.152
CC[C@H]1OC(=O)[C@H](C)[C@@H](O[C@H]2C[C@@](C)(OC)[C@@H](O)[C@H](C)O2)[C@H](C)[C@@H](O[C@@H]2O[C@H](C)C[C@H](N(C)C)[C@H]2O)[C@](C)(OC)C[C@@H](C)C(=O)[C@H](C)[C@@H](O)[C@]1(C)O [Clarithromycin],scaled lipid accumulation score,[4],inactive: ≤ 0
same,scaled lipid accumulation score,[1],inactive: ≤ 0 and inactive: ≤ -0.012
